From US20120087858A1 (AbbVie / Abbott, published 2012) come the findings set out here.

Experiment [1] has as its target T1, Recombinant Human β-NGF (human, UniProt P01138 fragment). The experiment in a line: cell-based or functional assay.
Experiment [2] concerns the target T2, Recombinant Human TNF-α/TNFSF1A (human, UniProt P01375 fragment). The experiment in a line: cell-based or functional assay.
Experiment [3] deals with T1, Recombinant Human β-NGF. The experiment in a line: Biacore SPR. As for the experimental part:
(§1) The BIACORE assay (Biacore, Inc, Piscataway, N.J.) determines the affinity of antibodies or DVD-Ig with kinetic measurements of on-rate and off-rate constants. Binding of antibodies or DVD-Ig to a target antigen (for example, a purified recombinant target antigen) is determined by surface plasmon resonance-based measurements with a Biacore® 1000 or 3000 instrument (Biacore® AB, Uppsala, Sweden) using running HBS-EP (10 mM HEPES [pH 7.4], 150 mM NaCl, 3 mM EDTA, and 0.005% surfactant P20) at 25° C. All chemicals are obtained from Biacore® AB (Uppsala, Sweden) or otherwise from a different source as described in the text. For example, approximately 5000 RU of goat anti-mouse IgG, (Fcγ), fragment specific polyclonal antibody (Pierce Biotechnology Inc, Rockford, Ill.) diluted in 10 mM sodium acetate (pH 4.5) is directly immobilized across a CMS research grade biosensor chip using a standard amine coupling kit according to manufacturer's instructions and procedures at 25 μg/ml. Unreacted moieties on the biosensor surface are blocked with ethanolamine. Modified carboxymethyl dextran surface in flowcell 2 and 4 is used as a reaction surface. Unmodified carboxymethyl dextran without goat anti-mouse IgG in flow cell 1 and 3 is used as the reference surface. For kinetic analysis, rate equations derived from the 1:1 Langmuir binding model are fitted simultaneously to association and dissociation phases of all eight injections (using global fit analysis) with the use of Biaevaluation 4.0.1 software. Purified antibodies or DVD-Ig are diluted in HEPES-buffered saline for capture across goat anti-mouse IgG specific reaction surfaces. Antibodies or DVD-Ig to be captured as a ligand (25 μg/ml) are injected over reaction matrices at a flow rate of 5 μl/min. The association and dissociation rate constants, kₒₙ (M⁻¹s⁻) and koff(s⁻¹) are determined under a continuous flow rate of 25 μl/min. Rate constants are derived by making kinetic binding measurements at different antigen concentrations ranging from 10-200 nM. The equilibrium dissociation constant (M) of the reaction between antibodies or DVD-Igs and the target antigen is then calculated from the kinetic rate constants by the following formula: KD=koff/kₒₙ. Binding is recorded as a function of time and kinetic rate constants are calculated.
(Surface plasmon resonance follows binding to a sensor surface in real time, without labels.)

For experiment [4], the target named is T2, Recombinant Human TNF-α/TNFSF1A. The experiment in a line: Biacore SPR. As for the experimental part:
as §1

T2 sequence (P01375 77-233 limits assumed): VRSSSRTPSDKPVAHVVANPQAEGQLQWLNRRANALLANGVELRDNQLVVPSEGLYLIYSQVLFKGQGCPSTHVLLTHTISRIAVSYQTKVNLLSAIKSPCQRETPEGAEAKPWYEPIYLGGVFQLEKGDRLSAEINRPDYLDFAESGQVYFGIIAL
T1 sequence (P01138 122-241 limits assumed): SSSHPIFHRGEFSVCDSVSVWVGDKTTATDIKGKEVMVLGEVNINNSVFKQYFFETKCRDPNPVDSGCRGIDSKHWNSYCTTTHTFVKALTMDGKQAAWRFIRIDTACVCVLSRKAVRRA

B1: DVD1528 (bispecific antibody, human IgG1, kappa)
heavy: QVQLQESGPGLVKPSETLSLTCTVSGFSLIGYDLNWIRQPPGKGLEWIGIIWGDGTTDYNSAVKSRVTISKDTSKNQFSLKLSSVTAADTAVYYCARGGYWYATSYYFDYWGQGTLVTVSSASTKGPSVFPLAPEVQLVESGGGLIQPGGSLRLSCAASGFTVSRNYMSWVRQAPGKGLEWVSVIYSGDRTYYADSVKGRFTISRDNSKNTLYLQMNSLRAEDTAVYYCARGEGGFDYWGQGTLVTVSS[human IgG1 constant region left out here]
light: DIQMTQSPSSLSASVGDRVTITCRASQSISNNLNWYQQKPGKAPKLLIYYTSRFHSGVPSRFSGSGSGTDFTFTISSLQPEDIATYYCQQEHTLPYTFGQGTKLEIKRTVAAPEIVMTQSPATLSVSPGERATLSCRASQSVSSNLAWYQQKPGQAPRLLIHGASIRATGLPARFSGSGSGTEFTLTISSLQSEDFAVYYCQQYNYWWTFGQGTKVEIKRTVAAPSVFIFPPSDEQLKSGTASVVCLLNNFYPREAKVQWKVDNALQSGNSQESVTEQDSKDSTYSLSSTLTLSKADYEKHKVYACEVTHQGLSSPVTKSFNRGEC
notes: DVD-Ig; linker set 3; also called DVD1528H; DVD1528L
As to B1, the “NGF Inhibition Assay EC50 (TF-1 cell proliferation)” value in experiment [1] is 0.018 nM. Further, in experiment [2], the “TNFα Neutralization Assay EC50 (L929 cells)” value was 0.197 nM. In experiment [3], the Kd (commonly the concentration at which binding is half-saturated) amounted to 0.003 nM; the koff – broadly, the first-order rate constant of dissociation – stood at 7.3e-06 s⁻¹; the kon – broadly, the second-order rate constant of association – was 2.4e+06 M⁻¹ s⁻¹. Also, in experiment [4], the equilibrium dissociation constant (Kd) amounted to 0.056 nM, the koff came to 9.4e-06 s⁻¹ and the kon is 170000 M⁻¹ s⁻¹.
